# The campaign covered roughly 220,000 compounds. About 5,700 (2.6%) were called active. Inconclusive results, whose numbers are uncertain, are shown with a selection of clear calls. Calls follow the shape of the dose curve; as a rule, active = well fitted inhibition curve with a large enough effect; inconclusive = small, poorly fitted or top-dose-only effect; inactive = no such curve, though single readings can be large or run the other way. Potencies of inconclusive entries are doubtful fits and often do not repeat.
# Target: Lysine-specific demethylase 5B (Homo sapiens) (UniProt Q9UGL1)
# Experiment: Primary screen for KDM5B Histone Demethylases FDH-coupled qHTS; also: nearly all actives have a fitted effect of over 70% in size
# Conditions: FDH-coupled NADH fluorescence (FDH is formaldehyde dehydrogenase); series mostly up to 57.7 µM
# Method in brief: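 Measured: NADH fluorescence change, 30 min, RT. System: KDM5BΔAP 200 nM final, H3K4me3 peptide, α-KG, Fe(II), ascorbate, NAD⁺ plus FDH, pH 7.5 HEPES. Compounds: titrated, 10 min pre-incubation with enzyme.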
# Potency is read from the fitted curve at half-maximal effect; tags tell the direction and shape of the fitted curve.
# Sequence of UniProt Q9UGL1 (Q9UGL1 whole entry, looked up): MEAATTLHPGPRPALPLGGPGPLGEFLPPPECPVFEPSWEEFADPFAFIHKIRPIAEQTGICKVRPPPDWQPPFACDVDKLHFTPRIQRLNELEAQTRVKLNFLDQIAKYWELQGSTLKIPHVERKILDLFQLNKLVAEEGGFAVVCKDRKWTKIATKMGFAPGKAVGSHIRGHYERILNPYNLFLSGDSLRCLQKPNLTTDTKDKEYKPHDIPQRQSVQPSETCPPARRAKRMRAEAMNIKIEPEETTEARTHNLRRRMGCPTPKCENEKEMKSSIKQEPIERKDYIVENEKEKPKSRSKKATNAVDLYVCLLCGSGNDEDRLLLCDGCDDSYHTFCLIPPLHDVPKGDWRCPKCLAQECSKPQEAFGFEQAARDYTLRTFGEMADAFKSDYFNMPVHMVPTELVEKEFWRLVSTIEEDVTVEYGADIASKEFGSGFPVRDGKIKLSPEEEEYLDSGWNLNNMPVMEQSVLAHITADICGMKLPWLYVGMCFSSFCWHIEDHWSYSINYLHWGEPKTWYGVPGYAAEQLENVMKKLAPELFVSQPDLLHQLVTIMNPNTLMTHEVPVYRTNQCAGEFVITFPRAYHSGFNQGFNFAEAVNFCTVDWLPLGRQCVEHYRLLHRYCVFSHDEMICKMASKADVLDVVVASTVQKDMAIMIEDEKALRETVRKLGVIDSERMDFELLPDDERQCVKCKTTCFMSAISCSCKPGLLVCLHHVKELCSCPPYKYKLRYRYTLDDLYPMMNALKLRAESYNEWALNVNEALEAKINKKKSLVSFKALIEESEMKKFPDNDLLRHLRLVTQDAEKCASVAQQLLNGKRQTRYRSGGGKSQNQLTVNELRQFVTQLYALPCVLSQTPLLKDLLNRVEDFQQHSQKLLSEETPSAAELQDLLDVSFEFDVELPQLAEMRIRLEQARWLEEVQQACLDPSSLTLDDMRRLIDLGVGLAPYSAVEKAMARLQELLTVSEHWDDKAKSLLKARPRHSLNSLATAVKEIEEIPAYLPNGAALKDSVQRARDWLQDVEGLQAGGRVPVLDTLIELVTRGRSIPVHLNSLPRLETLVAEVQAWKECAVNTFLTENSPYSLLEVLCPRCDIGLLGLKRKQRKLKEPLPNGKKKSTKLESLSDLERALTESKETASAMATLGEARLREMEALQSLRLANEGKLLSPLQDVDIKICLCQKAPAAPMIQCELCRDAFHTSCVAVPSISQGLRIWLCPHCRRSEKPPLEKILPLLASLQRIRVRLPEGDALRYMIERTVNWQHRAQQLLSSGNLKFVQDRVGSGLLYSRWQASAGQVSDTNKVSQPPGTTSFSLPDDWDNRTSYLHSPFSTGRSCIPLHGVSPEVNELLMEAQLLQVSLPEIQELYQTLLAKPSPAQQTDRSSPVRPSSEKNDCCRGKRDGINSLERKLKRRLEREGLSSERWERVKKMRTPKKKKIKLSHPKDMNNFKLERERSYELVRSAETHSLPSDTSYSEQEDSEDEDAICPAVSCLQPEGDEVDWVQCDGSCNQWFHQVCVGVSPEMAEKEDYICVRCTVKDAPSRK
row,SMILES,Potency
1,C=C(CCCN(Cc1ccccc1)Cc1ccccc1)C(=O)OCC,inactive
2,Cc1csc(NC(=O)Cc2ccc3ccccc3c2)n1,inactive
3,CS(=O)(=O)c1ccc2nc(NC(=O)CS(=O)(=O)c3ccc(Cl)cc3)sc2c1,"inconclusive: 1.12 µM [inhibitor, partial curve, poor fit]"
4,COc1ccc(CNC(=O)c2c(C)noc2-c2ccccc2C)cc1,"inconclusive: 28.2 µM [inhibitor, single point]"
5,CCNc1ccc(S(=O)(=O)N(CC)CC)cc1N,inactive
6,CCOC(=O)CNC(=O)Nc1cc(C(=O)NCc2cccc(F)c2)ccc1N1CCCC1,inactive
7,COc1ccccc1NC(=O)C1CCCN(c2nnc(C)c3c(C)n(-c4ccccc4)nc23)C1 (stereo not drawn),"inconclusive: 7.94 µM [inhibitor, partial curve, poor fit]"
8,O=C(N/N=C/c1cn(Cc2ccccc2)c2ccccc12)c1cc(O)cc(O)c1,"inconclusive: 25.1 µM [inhibitor, partial curve, poor fit]"
9,c1ccc(-c2nnc([C@H]3CCN(C4CCC4)C3)o2)cc1,"inconclusive: 31.6 µM [inhibitor, single point]"
10,CC(C(=O)N(C)CC(=O)Nc1ccccc1C(F)(F)F)N(C)Cc1cccc(F)c1 (stereo not drawn),inactive
11,COc1cc(-c2nc3c(c(=O)[nH]c(=O)n3Cc3ccccc3)n2C)ccc1OCc1ccccc1,inactive
12,O=C1CCC(C(=O)N2CCc3nc(-c4cccc(F)c4)[nH]c3C2)NC(=O)N1 (stereo not drawn),active: 22.4 µM
13,Cc1c(-c2ccc(F)cc2)[nH]c2ccc(CNC(=O)c3n[nH]c4c3CCCC4)cc12,active: 10 µM
14,COc1ccccc1C(=O)Nc1c2c(nn1-c1ccc(Cl)cc1)CS(=O)(=O)C2,"inconclusive: 35.5 µM [inhibitor, partial curve, poor fit]"
15,Cc1ccc(CN2C(=O)[C@@H]3C[C@@H](O)CN3C3(CN(Cc4ccccc4Cl)C3)C2=O)o1,"inconclusive: 15.8 µM [inhibitor, partial curve, poor fit]"
16,O=C1CCc2c(Cl)cc(Cl)c(O)c21,"inconclusive: 22.4 µM [inhibitor, partial curve, poor fit]"
17,COc1ccc(Nc2cc(C)nc(Nc3ccc(NC(=O)CC(C)(C)C)cc3)n2)cc1,"inconclusive: 22.4 µM [inhibitor, partial curve, poor fit]"
18,O=C(/C=C/c1ccc2c(c1)OCO2)NC1CCSC1=O (stereo not drawn),"inconclusive: 31.6 µM [inhibitor, partial curve, poor fit]"
19,CC1CCN(CCC(=O)N(CC#N)CC#N)c2ccccc21 (stereo not drawn),"inconclusive: 35.5 µM [inhibitor, single point]"
20,O=C1CC(c2ccccc2)N(C(=O)CNS(=O)(=O)c2cccs2)CCCCCN1 (stereo not drawn),"inconclusive: 28.2 µM [inhibitor, partial curve, poor fit]"
21,COc1ccc(CCNC(=O)c2cc3c(N4CCCC4)nc(C)cn3n2)cc1OC,inactive
22,COc1ccc(C2Cn3nnc(C(=O)NCc4cc(OC)ccc4OC)c3CO2)cc1 (stereo not drawn),"inconclusive: 35.5 µM [inhibitor, single point]"
23,Cc1ccc(/C=C/C(=O)N/N=C/c2ccccc2)cc1,inactive

row,SMILES,Potency
1,Cc1c(-c2ccccc2F)[nH]c2ccc(CNC(=O)Cn3ccc(=O)[nH]c3=O)cc12,active: 31.6 µM
2,O=C(Nc1ccc(Cl)cc1)c1nc2c(o1)CCN(Cc1cccc(O)c1)CC2,active: 31.6 µM
3,COc1ccc2cc(C(=O)N3CCNC(=O)C3)c(C)nc2c1,"inconclusive: 28.2 µM [inhibitor, partial curve, poor fit]"
4,COc1ccccc1-c1[nH]nc2ncc(-c3cnn(C)c3)nc12,"inconclusive: 28.2 µM [inhibitor, partial curve]"
5,CC(C)C[C@@H]1N[C@H](C(=O)NC(C)C)Cc2cn(Cc3nccn3C)c3cccc1c23,"inconclusive: 25.1 µM [inhibitor, partial curve, poor fit]"
6,O=C(c1ccoc1)N1CCC(c2n[nH]c(=O)n2Cc2ccc(F)cc2)CC1,inactive
7,Cc1cc(C)cc(NC(=S)NNC(=O)C(N)=O)c1,"inconclusive: 25.1 µM [inhibitor, partial curve, poor fit]"
8,N#C/C(=C\c1cccs1)C(=O)c1ccccc1,"inconclusive: 35.5 µM [inhibitor, single point]"
9,Cc1ccccc1Cn1cc(S(=O)(=O)c2ccc(Cl)cc2)c(=O)c2cc3c(cc21)OCO3,"inconclusive: 7.94 µM [inhibitor, partial curve, poor fit]"
10,Cc1cccc(Nc2nc(-c3ccccc3)c(C(=O)Nc3cccnc3)s2)c1,"inconclusive: 35.5 µM [inhibitor, partial curve, poor fit]"
11,COC[C@@H]1CN(C(=O)c2cc3ccccc3[nH]2)C[C@H]1c1ccncc1,inactive
12,CN1Cc2ccc(C(=O)Nc3ccc(OC(F)(F)F)cc3)cc2OCC1=O,inactive
13,CC(=O)N1CCC(N2C[C@H](O)C[C@H]2c2nc(-c3cccc(C)c3)no2)CC1,"inconclusive: 28.2 µM [inhibitor, partial curve]"
14,CC(C)CN1C(=O)CCc2cc(NC(=O)c3ccc(N(C)C)cc3)ccc21,"inconclusive: 20 µM [inhibitor, partial curve]"
15,CCC(C)NC(=O)Cn1c(=O)n(Cc2ccc(C(=O)NCCCOC)cc2)c(=O)c2ccccc21 (stereo not drawn),"inconclusive: 15.8 µM [inhibitor, partial curve, poor fit]"
16,CC(C)(C)c1ccc(C(=O)N2CCN(C(=O)c3nnn4c3COC(c3ccccc3)C4)CC2)cc1 (stereo not drawn),inactive
17,Cc1ccc(CS(=O)Cc2ccc(F)cc2Cl)cc1 (stereo not drawn),inactive
18,CN1c2cc(C(=O)NCCCc3ccccc3)ccc2C(=O)N2CCCC21 (stereo not drawn),"inconclusive: 28.2 µM [inhibitor, partial curve, poor fit]"
19,COc1ccc(Nc2cc(C(=O)NCCc3ccccc3)c3ccccc3n2)cc1OC,"inconclusive: 63.1 µM [inhibitor, single point]"
20,CCOc1cccc(CNC(=O)c2ccc3c(c2)N(S(C)(=O)=O)CC3)c1,"inconclusive: 25.1 µM [inhibitor, single point]"
21,COc1ccc(-c2cc(N3CCC(NC(=O)c4ccc(Cl)cc4)C3)n[nH]2)cc1 (stereo not drawn),"inconclusive: 12.6 µM [inhibitor, partial curve]"
22,CCCCN(C)Cc1ccccc1OCC,"inconclusive: 25.1 µM [inhibitor, single point]"
23,Cc1ccc(NC(=O)c2ccc(NC(=O)N3CCSc4ncccc43)cc2)cc1Cl,"inconclusive: 35.5 µM [inhibitor, partial curve, poor fit]"

row,SMILES,Potency
1,O=C(c1ccccc1Cl)N1CCN(c2nc3ncccc3o2)CC1,active: 20 µM
2,CCc1ccc(-n2nc3cc(C)c(NC(=O)c4cc(Cl)ccc4OC)cc3n2)cc1,"inconclusive: 5.62 µM [inhibitor, partial curve, poor fit]"
3,CC[C@@H](Nc1ncnc2c1CN(C1CCCNCC1)C(=O)CN2C)c1ccccc1 (stereo partly drawn),"inconclusive: 56.2 µM [inhibitor, single point]"
4,Cc1ccc2[nH]c(=O)c(CN(Cc3cccnc3)C(=O)c3cccnc3)cc2c1,inactive
5,CCOc1ccc(C(=O)NCC(c2ccco2)S(=O)(=O)c2ccc(C)cc2)cc1 (stereo not drawn),"inconclusive: 15.8 µM [inhibitor, partial curve, poor fit]"
6,Cc1ccc(-c2cc(C(=O)Nc3ccccn3)c3ccccc3n2)s1,"inconclusive: 22.4 µM [inhibitor, partial curve, poor fit]"
7,O=C(c1cn(C/C=C/c2ccccc2)nn1)N1CCCN(C2CCCCC2)CC1,"inconclusive: 15.8 µM [inhibitor, partial curve]"
8,C[S+](=O)([O-])N1CCCCC1c1nnc2n1CCNC2 (stereo not drawn),inactive
9,CN(CCNC(=O)CCc1cc2ccccc2[nH]c1=O)C1CCCCC1,"inconclusive: 15.8 µM [inhibitor, partial curve]"
10,N#Cc1ccc(CN2CCc3nc(C(=O)NCc4cccc(F)c4)oc3CC2)cc1,"inconclusive: 39.8 µM [inhibitor, partial curve, poor fit]"
11,CCN(Cc1ccccc1)c1ccc(/C=N/NC(=S)Nc2cc(S(=O)(=O)N(C)C)ccc2C)cc1,"inconclusive: 28.2 µM [inhibitor, partial curve, poor fit]"
12,O=C(O)COc1ccc(/C=C2/NC(=O)NC2=O)cc1I,inactive
13,COCCn1c(SC(C)C(N)=O)nnc1-c1cccc(C)c1 (stereo not drawn),inactive
14,CCNC(=O)/C(C#N)=C/c1c(N2CCN(C)CC2)nc2c(C)cccn2c1=O,"inconclusive: 22.4 µM [inhibitor, partial curve, poor fit]"
15,Cc1ccc(C)c(N2CCN(c3ncnc4c3nc3n4CCCCC3)CC2)c1,inactive
16,Cc1cccc(NC(=O)N2CCC(CCNC(=O)c3cccs3)CC2)c1,inactive
17,Cc1ccc2nc(Cl)c3cc(C(=O)NC4CCCc5ccccc54)sc3c2c1 (stereo not drawn),inactive
18,Cc1ccccc1C(=O)OCC1CCC[N+]2(C)CCCCC12 (stereo not drawn),inactive
19,CNCC(=O)N1CCC(n2nccc2NC(=O)Nc2ccccc2Cl)CC1,"inconclusive: 17.8 µM [inhibitor, partial curve, poor fit]"
20,S=C(NCc1ccccc1)Nc1ccccc1Br,inactive
21,N#CCc1ccc(NC(=O)CNc2ccccc2C(N)=O)cc1,"inconclusive: 31.6 µM [inhibitor, partial curve, poor fit]"
22,O=C(NCCc1ccc(Cl)cc1)c1ccccn1,inactive

# — PubChem BioAssay AID1347165 (National Center for Advancing Translational Sciences (NCATS), 2019)
